# Results as given in paper PMC4336329 (PLoS ONE, 2015).
# In all, about 310,000 compounds went through this assay and about 14,000 (4.5%) showed an effect of 50% or more. The effect is printed as a negative number. The list shows a part of the results.
# Target: human ether-à-go-go-related gene (hERG) potassium channel (human, UniProt Q12809)
# Assay: primary screen, population patch clamp on CHO cells stably expressing hERG
# 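Further: peak tail current of the secondary pulse compared with the same well before compound.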
# Sequence of human ether-à-go-go-related gene (hERG) potassium channel (Q12809 whole entry, looked up): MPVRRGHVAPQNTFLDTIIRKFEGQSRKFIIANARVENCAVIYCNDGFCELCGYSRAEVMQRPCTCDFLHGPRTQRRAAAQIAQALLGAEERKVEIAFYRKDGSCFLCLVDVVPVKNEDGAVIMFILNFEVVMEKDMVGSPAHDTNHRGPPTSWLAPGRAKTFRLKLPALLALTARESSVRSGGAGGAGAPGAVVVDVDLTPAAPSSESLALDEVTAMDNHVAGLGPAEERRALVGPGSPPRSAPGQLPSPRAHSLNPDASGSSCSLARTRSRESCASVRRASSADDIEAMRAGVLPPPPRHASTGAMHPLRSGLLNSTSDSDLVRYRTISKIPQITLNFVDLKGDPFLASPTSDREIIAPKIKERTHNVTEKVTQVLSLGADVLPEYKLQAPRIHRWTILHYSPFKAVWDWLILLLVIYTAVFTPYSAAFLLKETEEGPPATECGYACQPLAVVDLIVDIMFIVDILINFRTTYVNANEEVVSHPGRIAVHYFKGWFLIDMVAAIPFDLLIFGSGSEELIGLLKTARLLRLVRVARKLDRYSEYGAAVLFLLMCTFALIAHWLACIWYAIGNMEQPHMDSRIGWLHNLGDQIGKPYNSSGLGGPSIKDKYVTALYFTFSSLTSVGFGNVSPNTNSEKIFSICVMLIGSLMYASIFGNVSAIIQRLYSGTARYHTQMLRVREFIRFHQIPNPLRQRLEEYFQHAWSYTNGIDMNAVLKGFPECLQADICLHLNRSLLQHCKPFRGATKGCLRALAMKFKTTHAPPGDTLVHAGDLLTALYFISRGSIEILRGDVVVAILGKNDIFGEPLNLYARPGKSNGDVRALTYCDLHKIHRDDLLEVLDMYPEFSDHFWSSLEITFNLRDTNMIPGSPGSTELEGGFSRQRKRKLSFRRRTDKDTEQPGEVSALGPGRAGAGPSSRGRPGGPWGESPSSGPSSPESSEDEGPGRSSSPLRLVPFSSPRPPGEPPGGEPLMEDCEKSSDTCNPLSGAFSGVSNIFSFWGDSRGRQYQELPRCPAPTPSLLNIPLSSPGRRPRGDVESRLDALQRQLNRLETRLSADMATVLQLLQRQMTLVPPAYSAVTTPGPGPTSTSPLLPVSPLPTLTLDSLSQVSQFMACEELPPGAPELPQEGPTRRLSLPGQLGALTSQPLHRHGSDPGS
row,SMILES,"hERG current change (%, negative = inhibition) at 10uM [%]"
1,Cc1ccc(C)c(NC(=S)Nc2ncccc2C)c1,-8.78
2,CCCCn1c(=O)[nH]c(=O)c2c1nc(-c1ccc(-c3ccccc3)cc1)n2C,20.2
3,CCc1nc(CN2CCN(Cc3ccc(F)c(F)c3)C(CCO)C2)c(C)[nH]1 (centres unmarked),14.2
4,COc1ccc(C(=O)Nc2sc3c(c2C(=O)O)CC(C)(C)OC3)cc1,-2.18
5,O=C1C=C(c2ccccc2)CCC1,19.9
6,Cc1nc2c(C#N)c(C)[nH]n2c(=O)c1Cc1ccccc1,14.2
7,CCSc1nc2cc(C(=O)OC)ccc2c(=O)n1CC,0.198
8,CCOC(=O)c1c(C)[nH]c(C(=O)OCC(=O)N2CCc3ccccc32)c1C,18
9,O=C(N/N=C/c1ccncc1)c1cc(C2CC2)nc2ccccc12,-7.52
10,C#CCOCCOCCOCCNc1nc(N2CCN(C(=O)CCCCCCCCCCNC(=O)Cn3cc(C[C@@H](C)O)nn3)CC2)nc(N2CCN(C(=O)CCCCCCCCCCNC(=O)[C@H](CO)n3cc(CCCSC)nn3)CC2)n1,1.59
11,NC(=O)c1cccc([N+](=O)[O-])c1,5.64
12,CCc1ccccc1NS(=O)(=O)c1ccc2c(c1)C(C)(C)C(=O)N2C,-7.66
13,O=C(Nc1ccc(OCC(=O)N2CCN(S(=O)(=O)c3ccccc3)CC2)cc1)c1ccco1,4.9
14,CCCC12CN(C(=O)c3ccc([N+](=O)[O-])cc3)CC(C)(CN(C(=O)c3ccc([N+](=O)[O-])cc3)C1)C2=O,-14.5
15,Cc1ccc(CNCC(O)(c2ccc(F)cc2)c2ccc(F)cc2)cc1,-56.4
16,Cc1ccc(NS(=O)(=O)c2ccc3c(c2)NC(=O)CO3)c(C)c1,19
17,N#CCCn1ncn(-c2ccccc2)c1=S,1.22
18,COc1cccc(/C=C2\SC(=S)N(CCC(=O)NCCc3ccc(O)cc3)C2=O)c1,3.18
19,Cc1ccc(-c2csc(NC(=O)c3ccc4c(=O)n5c(nc4c3)CCCCC5)n2)cc1,-6.65
20,COc1cc(NC(=O)c2ccccc2-c2ccccc2)cc(OC)c1OC,4.85
21,CC(C)(C)c1csc(NC(=O)C2=COCCO2)n1,-2.05
22,CC1=NN(C(C#N)c2ccc(F)cc2)C(c2ccccc2)C1 (centres unmarked),4.44
23,CC1(C)Cc2c(sc3[nH]c(=S)[nH]c(=O)c23)CO1,-10.7

row,SMILES,"hERG current change (%, negative = inhibition) at 10uM [%]"
1,Cl.OC(c1ccccc1)(c1ccccc1)C1CCCN1 (centres unmarked),-2.08
2,S=c1[nH]cc(-c2ccccc2)n1-c1cccc(Cl)c1,2.26
3,Cc1nnc(N/N=C/c2ccc(O)c([N+](=O)[O-])c2)[nH]c1=O,9.29
4,COc1ccc(NC(=O)CSc2nnc(Cc3ccccc3)c(=O)n2N)cc1,3.47
5,Cc1ccc(NS(=O)(=O)c2cccc3nsnc23)cc1[N+](=O)[O-],4.77
6,CCCC1=C(C(=O)OCC)C(c2ccc(OC)c(C)c2OC)C(C#N)=C(N)O1 (centres unmarked),-3.01
7,Cc1noc(C)c1COC(=O)Cc1ccc(Br)cc1,11.6
8,COC(=O)c1nc(-c2ccccc2)n[nH]1,-5.5
9,CCOc1cccc(CNC2CN3CCC2CC3)c1.Cl (centres unmarked),3.13
10,CCN(CC)C(=O)CC(c1ccc(N(C)C)cc1)c1c(OC)cc(OC)c2c(-c3ccccc3)cc(=O)oc12 (centres unmarked),5.07
11,CCOc1ccc(-n2ccnc2SCC(=O)Nc2nnc(C)s2)cc1,-5.56
12,Cc1ccc(C)c(N2N=C(C(=O)Nc3cccc(S(=O)(=O)N4CCCCC4)c3)CCC2=O)c1,-17.6
13,COc1ccc(Cl)cc1Nc1nc(C)cc(=O)[nH]1,1.61
14,O=C(NCN1C(=O)C2C3C=CC(C3)C2C1=O)Nc1ccccn1 (centres unmarked),9.67
15,Cc1cc(C)c2oc(C(=O)Nc3ccc(S(=O)(=O)N4CCCC(C)C4)cc3)cc(=O)c2c1 (centres unmarked),6.59
16,COc1cccc2c1OCC/C2=N\NC(=O)COc1ccc(C)cc1,11.6
17,COc1cccc(C(=O)N(Cc2cc3cc(C)ccc3[nH]c2=O)C(C)C)c1,-11.2
18,CCNC(=O)C(=O)NCCC1CCCCN1S(=O)(=O)c1cccs1 (centres unmarked),3.49
19,CCC(C)[C@H](NC(=O)c1cc2cc(Cl)ccc2n1C)C(=O)N1CCC[C@H]1C(=O)O (some centres unmarked),16.5
20,CCOC(=O)C1CCN(CC(=O)Nc2c(C(=O)OC)[nH]c3cccc(C)c23)CC1,-2.56
21,CCOC(=O)/C=C/C(=O)OCC(=O)Nc1ccc(C)cc1,11.4
22,COc1ccc(S(=O)(=O)N2CCOCC2)cc1NC(=O)CCc1c[nH]c2ccccc12,-13.1
23,Cc1cc(C)c(S(=O)(=O)N2CCCC(C(=O)NCCC3=CCCCC3)C2)c(C)c1 (centres unmarked),5.38

row,SMILES,"hERG current change (%, negative = inhibition) at 10uM [%]"
1,Cc1cccc(C(=O)NCCCNC(=O)c2ccco2)c1,11.5
2,Cc1ccccc1Nc1c(C)c(C)nc2ncnn12,20.2
3,N#CC(C(=O)Nc1ccccc1)=C1Nc2ccccc2N1,10.8
4,Cc1cc(NC(=O)COC(=O)Cn2c(C)csc2=O)ccc1Br,-6.11
5,O=C(c1ccco1)N1CCN(C(=O)c2[nH]ncc2[N+](=O)[O-])CC1,-1.8
6,COc1ccccc1N1CCN(C(CNS(=O)(=O)c2ccccc2)c2cccnc2)CC1 (centres unmarked),-7.98
7,COC(=O)c1cn(C(=O)c2ccccc2F)nc1N,-5.96
8,C=C(c1cccc2ccccc12)P(=O)(O)O,2.83
9,O=C(CSc1nc2ncc(Br)cc2[nH]1)c1ccc([N+](=O)[O-])cc1,-66.9
10,COCCn1c(SC(C)C(=O)NCC2CCCO2)nc2scc(-c3ccc(F)cc3)c2c1=O (centres unmarked),-66.5
11,COc1cccc(/C=C/C(=O)c2cccc([N+](=O)[O-])c2)c1,-3.45
12,CC(=O)/C(=N\Nc1ccccc1)Sc1nncn1C,6.79
13,CCOC(=O)c1sc(Nc2nc3c(F)cccc3s2)cc1C,7.62
14,Nc1nc(-c2ccccc2)c(-c2ccccc2)o1,10.9
15,Cc1nn(-c2ccccc2)c(Cl)c1/C=N/Nc1nnc(C)c(=O)[nH]1,-0.145
16,O=C(Nc1ccc(F)cc1)c1cccc(N2C(=O)C3C4C=CC(C5CC45)C3C2=O)c1 (centres unmarked),5.37
17,CCOC(=O)c1c(-c2cccs2)csc1NC(=O)CSc1ncn[nH]1,11
18,CCOc1ccc(OCC(=O)OCc2cc(=O)n3cc(Br)ccc3n2)cc1,12
19,CCOC(=O)N1CCc2c(sc3[nH]c(=S)[nH]c(=S)c23)C1,13.4
20,CCOc1ccc(NC(=O)CSc2nnnn2C2CC2)cc1S(=O)(=O)N1CCCC1,-8.53
21,COc1ccccc1Cn1c(-c2ccccc2OC)nc2ccccc21,-20.1
22,CN(C(=O)COC(=O)c1ccccc1Cc1ccccc1)c1c(N)n(Cc2ccccc2)c(=O)[nH]c1=O,9.7
23,O=C(Nc1ccc(OC(F)F)c(Cl)c1)c1cccc(OC(F)F)c1,-61.7

row,SMILES,"hERG current change (%, negative = inhibition) at 10uM [%]"
1,O=C(NCC1CCCO1)c1nn2c(C(F)(F)F)cc(-c3ccc(Br)o3)nc2c1Br (centres unmarked),2.59
2,Cc1ccc(CNC(=O)c2ccccc2NC(=O)CN2CCN(C)CC2)cc1,-59.2
3,CC1=C(C(=O)NCc2ccccc2)C(c2cccnc2)n2ncnc2N1 (centres unmarked),2.59
4,CCSc1nc(N)c2c(C)c(C)sc2n1,-2.68
5,O=C1CCSc2ccc(Cl)cc2N1Cc1ccc(Cl)cc1,14.1
6,O=C1N/C(=C\c2ccc(N3CCOCC3)c(F)c2)C(=O)N1Cc1ccccc1,18.1
7,O=C(CN1CCN(C(=O)c2ccco2)CC1)Nc1ccccc1-c1ccccc1,-50.5
8,Cc1nc(N2CCN(c3ccccc3F)CC2)[nH]c(=O)c1C,17
9,COc1ccc(C(=O)NCc2nnc(SCC(=O)NC3=NCCS3)n2C)cc1,-5.57
10,CCN(CC)S(=O)(=O)c1ccc(C)c(NC(=O)COC(=O)C=C(C)C)c1,2.17
11,CCn1c(COc2ccccc2C)nnc1SCC(=O)NCc1ccccc1,-25.2
12,CCCCn1cnc2c(=S)nc(N)[nH]c21,6.43
13,O=c1c2c(-c3ccc(Cl)cc3)csc2nc2n1CCC2,-28.9
14,CCOC(=O)Cc1csc(NS(=O)(=O)c2ccc(C(F)(F)F)cc2)n1,20.6
15,Cc1cc(C)cc(NC(=O)CN2CCN(c3ccccc3)CC2)c1,7.33
16,COC(=O)N1CCN(S(=O)(=O)c2ccc(F)cc2)CC1,4.01
17,CCC(=O)Nc1ccc2c(c1)ncn2CCc1ccccc1,-10.6
18,COc1c(Cl)cc(C(=O)Nc2ccccc2C(=O)O)cc1Cl,47.3
19,CCOc1ccc(CCNC(=O)C2CC(=O)N(CCc3ccccc3)C2)cc1OCC (centres unmarked),4
20,COc1ccccc1CNS(=O)(=O)c1ccc(-c2cc(C)no2)cc1,17
